Experimental findings from patent US20220348569A1 (priority 2021, published 2022) are described below.

Series [1] concerns SARS-CoV-2 pseudovirus. The experiment in a line: microbe, parasite or virus in culture. Type of series: cell-based. The conditions noted are these: HT1080/ACE2 cells, mean ± SD (n = 3).
The test system of series [2] is SARS-CoV-2 pseudovirus. Nature of the series: organism not typed. The format is cell-based. The conditions noted are these: 293T/ACE2 cells, mean ± SD (n = 3).
Series [3] relates to Caco-2 cells (clone C2BBe1); P-gp.
In a further series the test system is 293T/ACE2 cells. The settings on record: human.
The subject of the next series is HT1080/ACE2 cells. The settings on record: human.
Setting [4] is: Severe acute respiratory syndrome-related coronavirus, HT-1080, SARS-CoV-2 pseudovirus.
Where [5] appears, read: 293T/ACE2, SARS-CoV-2 (WT) pseudovirus.

In the series on SARS-CoV-2 pseudovirus [1] (setting [4]), `O=C1C(=Cc2ccc(-c3ccc(Cl)cc3)o2)SC(=S)N1CCc1ccccc1` [Compound 10, 5-((5-(4-chlorophenyl)furan-2-yl)methylene)-3-phenethyl-2-thioxothiazolidin-4-one] displayed a concentration for half-maximal inhibition (IC50) above 2000 nM.

`CN1C(=O)/C(=C/c2ccc(-c3cccc(C(=O)O)c3)o2)SC1=S` [Compound 15]: the IC50 came out at 154 ± 8 nM with SARS-CoV-2 pseudovirus [2] (setting [5]) and 166 ± 44 nM with SARS-CoV-2 pseudovirus [1] (setting [4]).

For the compound `O=C1NC(=S)S/C1=C\c1ccc(-c2ccc(C(=O)O)c(Cl)c2)o1` [Compound 21], the half-maximal inhibitory concentration (IC50) in the series on SARS-CoV-2 pseudovirus [2] (setting [5]) and with SARS-CoV-2 pseudovirus [1] (setting [4]) was above 4000 nM in each case.

Turning to `C=CCN1C(=O)/C(=C/c2ccc(-c3cc(C(=O)O)cc(C(=O)O)c3)o2)SC1=S` [Compound 19], the IC50 in the series on SARS-CoV-2 pseudovirus [2] (setting [5]) and with SARS-CoV-2 pseudovirus [1] (setting [4]) was above 4000 nM in each case.

On to `O=C(O)c1cc(-c2ccc(/C=C3\SC(=S)N(C4CCCCC4)C3=O)o2)ccc1Cl` [Compound 18], for which the IC50 in the series with SARS-CoV-2 pseudovirus [2] (setting [5]) is 13.4 ± 1.8 nM; in the series on SARS-CoV-2 pseudovirus [1] (setting [4]), 16 ± 2.6 nM.

With `Cc1c(C(=O)O)cncc1-c1ccc(/C=C2\SC(=S)N(CCc3ccccc3)C2=O)o1` [Compound 9], the IC50 in the series with SARS-CoV-2 pseudovirus [1] (setting [4]) stood at 367 ± 73 nM.

As for `CCN1C(=O)/C(=C/c2ccc(-c3cccc(C(=O)O)c3)o2)SC1=S` [Compound 13], the results for the IC50 in the series with SARS-CoV-2 pseudovirus [2] (setting [5]) and in the series on SARS-CoV-2 pseudovirus [1] (setting [4]) were 92 ± 24 nM and 176 ± 1 nM, respectively.

Regarding `O=C1NC(=S)S/C1=C\c1ccc(-c2ccc(Cl)c(C(=O)O)c2)o1` [Compound 12], the half-maximal inhibitory concentration (IC50) with SARS-CoV-2 pseudovirus [2] (setting [5]) and in the series on SARS-CoV-2 pseudovirus [1] (setting [4]) was above 4000 nM each time.

In the case of `O=C1/C(=C/c2ccc(-c3ccccc3)o2)SC(=S)N1CCc1ccccc1` [Compound 16], the IC50 worked out at 231 ± 62 nM with SARS-CoV-2 pseudovirus [2] (setting [5]) and 592 ± 112 nM in the series with SARS-CoV-2 pseudovirus [1] (setting [4]).

On to `C#CCN1C(=O)/C(=C/c2ccc(-c3ccc(Cl)c(C(=O)O)c3)o2)SC1=S` [Compound 23], for which the IC50 with SARS-CoV-2 pseudovirus [2] (setting [5]) and in the series on SARS-CoV-2 pseudovirus [1] (setting [4]) was above 4000 nM throughout.

Consider `O=C(O)c1cccc(-c2ccc(/C=C3\SC(=S)N(C4CCCCC4)C3=O)o2)c1` [Compound 25], for which the IC50 stood at 36.3 ± 6.7 nM with SARS-CoV-2 pseudovirus [2] (setting [5]) and 39 ± 13 nM with SARS-CoV-2 pseudovirus [1] (setting [4]).

Consider `O=C(O)c1cc(-c2ccc(/C=C3\SC(=S)N(CCc4ccccc4)C3=O)o2)ccc1Cl` [Compound 1, (Z)-2-Chloro-5-(5-((4-oxo-3-phenethyl-2-thioxothiazolidin-5-ylidene)methyl)furan-2-yl)benzoic acid], for which the “P-gp Substrate Classification” value in series [3] is recorded as “Negative”.

Regarding `CN1C(=O)/C(=C/c2ccc(-c3cccc(C(=O)O)c3)o2)SC1=S` [Compound 27], the figures for the IC50 in the series with SARS-CoV-2 pseudovirus [2] (SARS-CoV-2 (WT) pseudovirus) and in the series on SARS-CoV-2 pseudovirus [1] (SARS-CoV-2 pseudovirus) were 200 ± 11 nM and 148 ± 85 nM, respectively. Moreover, the CC50 in the series on 293T/ACE2 cells and in the series with HT1080/ACE2 cells was above 100 µM each time.

As to `Cc1ccc(-c2ccc(/C=C3\SC(=S)N(CC(C)C)C3=O)o2)cc1C(=O)O` [Compound 22], the IC50 in the series on SARS-CoV-2 pseudovirus [2] (setting [5]) and in the series with SARS-CoV-2 pseudovirus [1] (setting [4]) was above 4000 nM in each case.

`NS(=O)(=O)c1ccc(-c2ccc(/C=C3\SC(=S)N(CCc4ccccc4)C3=O)o2)cc1` [Compound 11]: the concentration for half-maximal inhibition (IC50) with SARS-CoV-2 pseudovirus [2] (setting [5]) was found to be 31 ± 0.2 nM; in the series on SARS-CoV-2 pseudovirus [1] (setting [4]), 25 ± 0.2 nM.

For `CCN1C(=O)/C(=C/c2ccc(-c3ccc(Cl)c(C(=O)O)c3)o2)SC1=S` [Compound 24], the IC50 in the series on SARS-CoV-2 pseudovirus [2] (setting [5]) stood at 111 ± 6.6 nM; with SARS-CoV-2 pseudovirus [1] (setting [4]), 175 ± 16 nM.

For `COCCN1C(=O)/C(=C/c2ccc(-c3ccc(Cl)c(C(=O)O)c3)o2)SC1=S` [Compound 14], the IC50 in the series with SARS-CoV-2 pseudovirus [2] (setting [5]) was determined as 867 ± 110 nM; in the series on SARS-CoV-2 pseudovirus [1] (setting [4]) it was 860 ± 248 nM.

For `C=CCN1C(=O)/C(=C/c2ccc(-c3cccc(C(=O)O)c3)o2)SC1=S` [Compound 17], the figures for the IC50 with SARS-CoV-2 pseudovirus [2] (setting [5]) and with SARS-CoV-2 pseudovirus [1] (setting [4]) were 322 ± 60 nM and 283 ± 96 nM, respectively.

`N=C1NC(=O)/C(=C/c2ccc(-c3ccc(Cl)c(C(=O)O)c3)o2)S1` [Compound 26] returned an IC50 with SARS-CoV-2 pseudovirus [2] (setting [5]) above 4000 nM.

On to `C=CCN1C(=O)/C(=C/c2ccc(-c3cccc(C(=O)O)c3C)o2)SC1=S` [Compound 20], for which the 50% inhibitory concentration (IC50) with SARS-CoV-2 pseudovirus [2] (setting [5]) was determined as 111 ± 3.5 nM; in the series on SARS-CoV-2 pseudovirus [1] (setting [4]) it was 199 ± 12 nM.

Regarding `O=C1NC(=S)S/C1=C\c1ccc(-c2ccc(C(=O)O)cc2)o1` [Compound 28], the IC50 in the series on SARS-CoV-2 pseudovirus [2] (setting [5]) and in the series with SARS-CoV-2 pseudovirus [1] (setting [4]) was above 4000 nM each time.

The IC50 is the concentration needed to halve the response being measured. One may read the CC50 as the concentration at which the toxic effect on the cells reaches its halfway point. A low value points to greater toxicity to the cells.
